{"source": "paper PMC12820563", "note": "Some of the results follow. The list includes weakly bound sequences.", "data": [{"target": "T1, MBP-FoxP3dN (UniProt Q99JB6)", "T1 sequence": "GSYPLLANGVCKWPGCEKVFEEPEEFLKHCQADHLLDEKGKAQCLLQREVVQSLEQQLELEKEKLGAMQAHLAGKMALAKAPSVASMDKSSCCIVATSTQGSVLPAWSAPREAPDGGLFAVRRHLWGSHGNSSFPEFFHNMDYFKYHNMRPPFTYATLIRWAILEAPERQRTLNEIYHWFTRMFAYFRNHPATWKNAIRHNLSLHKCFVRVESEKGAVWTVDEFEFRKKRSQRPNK", "assay": "PD-seq (MBP pull-down with sequencing)", "settings": "20 mM Tris-HCl pH 7.5, 100 mM NaCl, 1.5 mM MgCl2, 0.4 uM protein, 0.1 uM dsDNA library, 30 min, room temperature, amylose pull-down; high values mean tight binding; double strand, one strand shown", "values": [{"sequence": "GATGATTGTTCTCCCAGCTGATGAATTCGGCGCGTCGAGTAAACAAATTTTCCTAATCTTTCTGTTCAAGCGCCATCTAC", "binding signal (RPM ratio (pull-down/input))": 1.43}, {"sequence": "GATGATTGTTCTCCCAGCTGATGAATTCTGCTGGTCGAGTAAACAAATTTTCCTAATCTTTCTGTTCAAGCGCCATCTAC", "binding signal (RPM ratio (pull-down/input))": 1.19}, {"sequence": "GATGATTGTTCTCCCAGCTGATGAATTAGTGGGTTCGAGTAAACAAATTTTCCTAATCTTTCTGTTCAAGCGCCATCTAC", "binding signal (RPM ratio (pull-down/input))": 1.17}, {"sequence": "GATGATTGTTCTCCCAGCTGATGAATTGACTGCATCGAGTAAACAAATTTTCCTAATCTTTCTGTTCAAGCGCCATCTAC", "binding signal (RPM ratio (pull-down/input))": 0.987}, {"sequence": "GATGATTGTTCTCCCAGCTGATGAATTGTTTTAATCGAGTAAACAAATTTTCCTAATCTTTCTGTTCAAGCGCCATCTAC", "binding signal (RPM ratio (pull-down/input))": 0.888}, {"sequence": "GATGATTGTTCTCCCAGCTGATGAATTGTCGTGGTCGAGTAAACAAATTTTCCTAATCTTTCTGTTCAAGCGCCATCTAC", "binding signal (RPM ratio (pull-down/input))": 0.521}, {"sequence": "GATGATTGTTCTCCCAGCTGATGAATTGTTGATGTCGAGTAAACAAATTTTCCTAATCTTTCTGTTCAAGCGCCATCTAC", "binding signal (RPM ratio (pull-down/input))": 3.59}, {"sequence": "GATGATTGTTCTCCCAGCTGATGAATTGGGGTCGTCGAGTAAACAAATTTTCCTAATCTTTCTGTTCAAGCGCCATCTAC", "binding signal (RPM ratio (pull-down/input))": 0.545}, {"sequence": "GATGATTGTTCTCCCAGCTGATGAATTGTTAAATTCGAGTAAACAAATTTTCCTAATCTTTCTGTTCAAGCGCCATCTAC", "binding signal (RPM ratio (pull-down/input))": 0.358}, {"sequence": "GATGATTGTTCTCCCAGCTGATGAATTATAGTTATCGAGTAAACAAATTTTCCTAATCTTTCTGTTCAAGCGCCATCTAC", "binding signal (RPM ratio (pull-down/input))": 1.12}, {"sequence": "GATGATTGTTCTCCCAGCTGATGAATTGCGCTCCTCGAGTAAACAAATTTTCCTAATCTTTCTGTTCAAGCGCCATCTAC", "binding signal (RPM ratio (pull-down/input))": 1.51}, {"sequence": "GATGATTGTTCTCCCAGCTGATGAATTCTAGAGCTCGAGTAAACAAATTTTCCTAATCTTTCTGTTCAAGCGCCATCTAC", "binding signal (RPM ratio (pull-down/input))": 0.202}, {"sequence": "GATGATTGTTCTCCCAGCTGATGAATTACGCAGCTCGAGTAAACAAATTTTCCTAATCTTTCTGTTCAAGCGCCATCTAC", "binding signal (RPM ratio (pull-down/input))": 1.78}, {"sequence": "GATGATTGTTCTCCCAGCTGATGAATTGGAGTATTCGAGTAAACAAATTTTCCTAATCTTTCTGTTCAAGCGCCATCTAC", "binding signal (RPM ratio (pull-down/input))": 1.02}, {"sequence": "GATGATTGTTCTCCCAGCTGATGAATTTACTGTTTCGAGTAAACAAATTTTCCTAATCTTTCTGTTCAAGCGCCATCTAC", "binding signal (RPM ratio (pull-down/input))": 1.64}, {"sequence": "GATGATTGTTCTCCCAGCTGATGAATTGGAGAGATCGAGTAAACAAATTTTCCTAATCTTTCTGTTCAAGCGCCATCTAC", "binding signal (RPM ratio (pull-down/input))": 0.188}, {"sequence": "GATGATTGTTCTCCCAGCTGATGAATTGACCTTATCGAGTAAACAAATTTTCCTAATCTTTCTGTTCAAGCGCCATCTAC", "binding signal (RPM ratio (pull-down/input))": 0.446}, {"sequence": "GATGATTGTTCTCCCAGCTGATGAATTCGCCTTTTCGAGTAAACAAATTTTCCTAATCTTTCTGTTCAAGCGCCATCTAC", "binding signal (RPM ratio (pull-down/input))": 1.85}, {"sequence": "GATGATTGTTCTCCCAGCTGATGAATTTCCTGAGTCGAGTAAACAAATTTTCCTAATCTTTCTGTTCAAGCGCCATCTAC", "binding signal (RPM ratio (pull-down/input))": 0.196}, {"sequence": "GATGATTGTTCTCCCAGCTGATGAATTGCTATTTTCGAGTAAACAAATTTTCCTAATCTTTCTGTTCAAGCGCCATCTAC", "binding signal (RPM ratio (pull-down/input))": 1.47}, {"sequence": "GATGATTGTTCTCCCAGCTGATGAATTTCGGCTCTCGAGTAAACAAATTTTCCTAATCTTTCTGTTCAAGCGCCATCTAC", "binding signal (RPM ratio (pull-down/input))": 0.445}, {"sequence": "GATGATTGTTCTCCCAGCTGATGAATTACTCCGATCGAGTAAACAAATTTTCCTAATCTTTCTGTTCAAGCGCCATCTAC", "binding signal (RPM ratio (pull-down/input))": 0.187}, {"sequence": "GATGATTGTTCTCCCAGCTGATGAATTCCCAGTATCGAGTAAACAAATTTTCCTAATCTTTCTGTTCAAGCGCCATCTAC", "binding signal (RPM ratio (pull-down/input))": 0.359}, {"sequence": "GATGATTGTTCTCCCAGCTGATGAATTTATATAATCGAGTAAACAAATTTTCCTAATCTTTCTGTTCAAGCGCCATCTAC", "binding signal (RPM ratio (pull-down/input))": 0.88}, {"sequence": "GATGATTGTTCTCCCAGCTGATGAATTAGTTAGCTCGAGTAAACAAATTTTCCTAATCTTTCTGTTCAAGCGCCATCTAC", "binding signal (RPM ratio (pull-down/input))": 2.17}, {"sequence": "GATGATTGTTCTCCCAGCTGATGAATTCGCCGGGTCGAGTAAACAAATTTTCCTAATCTTTCTGTTCAAGCGCCATCTAC", "binding signal (RPM ratio (pull-down/input))": 0.219}, {"sequence": "GATGATTGTTCTCCCAGCTGATGAATTAGATGAATCGAGTAAACAAATTTTCCTAATCTTTCTGTTCAAGCGCCATCTAC", "binding signal (RPM ratio (pull-down/input))": 0.343}, {"sequence": "GATGATTGTTCTCCCAGCTGATGAATTAATCCATTCGAGTAAACAAATTTTCCTAATCTTTCTGTTCAAGCGCCATCTAC", "binding signal (RPM ratio (pull-down/input))": 0.276}, {"sequence": "GATGATTGTTCTCCCAGCTGATGAATTCTCCCGATCGAGTAAACAAATTTTCCTAATCTTTCTGTTCAAGCGCCATCTAC", "binding signal (RPM ratio (pull-down/input))": 0.194}, {"sequence": "GATGATTGTTCTCCCAGCTGATGAATTAATTGGATCGAGTAAACAAATTTTCCTAATCTTTCTGTTCAAGCGCCATCTAC", "binding signal (RPM ratio (pull-down/input))": 0.424}, {"sequence": "GATGATTGTTCTCCCAGCTGATGAATTGATTGGGTCGAGTAAACAAATTTTCCTAATCTTTCTGTTCAAGCGCCATCTAC", "binding signal (RPM ratio (pull-down/input))": 1.38}]}]}
